The list shows a part of the results. These are noisy estimates, calculated here from bound and input reads.

The text below walks through data of the BET-seq Pho4 binding data (Le et al. 2018).

The test has as its target T1, Pho4 (S. cerevisiae) (UniProt P07270).
T1 sequence: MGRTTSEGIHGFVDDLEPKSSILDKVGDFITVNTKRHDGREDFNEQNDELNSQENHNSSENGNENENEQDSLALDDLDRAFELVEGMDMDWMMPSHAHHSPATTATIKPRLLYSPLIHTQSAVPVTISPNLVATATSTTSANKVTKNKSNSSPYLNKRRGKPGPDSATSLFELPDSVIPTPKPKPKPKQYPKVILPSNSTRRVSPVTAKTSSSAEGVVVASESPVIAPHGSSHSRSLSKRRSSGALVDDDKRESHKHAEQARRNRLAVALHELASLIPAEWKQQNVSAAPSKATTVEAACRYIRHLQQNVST
The test is described as follows: relative binding free energy (BET-seq); higher = weaker binding. Particulars: reference: library average.
Consider CTTTGCACGTGGGTGG, for which the “relative binding free energy” value was -0.13 kcal/mol.

Regarding GATGTCACGTGAAAGG, the “relative binding free energy” value turned out to be 0.31 kcal/mol.

In the case of TGTTTCACGTGTGTCT, the “relative binding free energy” value came to 0.15 kcal/mol.

GGGTTCACGTGAAGGC: the “relative binding free energy” value was 0.33 kcal/mol.

For the sequence CCGTGCACGTGGAGGT, the “relative binding free energy” value turned out to be 0.03 kcal/mol.

As to TACATCACGTGTGGAG, the “relative binding free energy” value is 0.14 kcal/mol.

With TAGAGCACGTGGTTAT, the “relative binding free energy” value was -0.05 kcal/mol.

Take TGGCGCACGTGGCGGC: the “relative binding free energy” value was -0.19 kcal/mol.

Consider GTTCACACGTGGTGCG, for which the “relative binding free energy” value is -0.04 kcal/mol.

For the sequence GGTTACACGTGTGAGG, the “relative binding free energy” value was found to be 0.23 kcal/mol.

With ATTTGCACGTGGCTTG, the “relative binding free energy” value is -0.19 kcal/mol.

In the case of GGAGGCACGTGTAGCT, the “relative binding free energy” value is -0.06 kcal/mol.

For the sequence GGTTCCACGTGGGTGC, the “relative binding free energy” value worked out at 0.08 kcal/mol.

In the case of AGTCACACGTGGAGTG, the “relative binding free energy” value is -0.1 kcal/mol.

For TAGGACACGTGAGTGT, the “relative binding free energy” value came to 0.25 kcal/mol.

As to TATATCACGTGTGAGA, the “relative binding free energy” value came out at 0.19 kcal/mol.

ATGGACACGTGGACGT: the “relative binding free energy” value was 0.05 kcal/mol.

Turning to AGGTCCACGTGGTGGG, the “relative binding free energy” value is -0.07 kcal/mol.

Consider GTATTCACGTGATTTC, for which the “relative binding free energy” value amounted to 0.45 kcal/mol.

AGTCACACGTGTTTGT: the “relative binding free energy” value was 0.04 kcal/mol.

As to TAAATCACGTGGGCTA, the “relative binding free energy” value was 0.07 kcal/mol.

Turning to GTGGACACGTGAGGAG, the “relative binding free energy” value came out at 0.33 kcal/mol.

Take GTTTTCACGTGTACGG: the “relative binding free energy” value was 0.19 kcal/mol.

As to TTTAGCACGTGTGGCA, the “relative binding free energy” value came out at 0.02 kcal/mol.

For TGGGGCACGTGTTGCC, the “relative binding free energy” value was -0.17 kcal/mol.

Turning to TTTCTCACGTGTTGTA, the “relative binding free energy” value amounted to 0.08 kcal/mol.

For TGGTGCACGTGGCGCT, the “relative binding free energy” value was -0.13 kcal/mol.

Take GGATACACGTGTAGAT: the “relative binding free energy” value came to 0.33 kcal/mol.

With GTGATCACGTGAGGGG, the “relative binding free energy” value amounted to 0.36 kcal/mol.

In the case of TCGTGCACGTGGGCAG, the “relative binding free energy” value is -0.16 kcal/mol.

Consider GAGGGCACGTGGGATG, for which the “relative binding free energy” value was -0.08 kcal/mol.

As for TTTAGCACGTGGAGAT, the “relative binding free energy” value is -0.02 kcal/mol.

Turning to AGGTGCACGTGTGGCA, the “relative binding free energy” value was -0.03 kcal/mol.

For TGGGACACGTGTTTCA, the “relative binding free energy” value came to 0.04 kcal/mol.

As for TCTTACACGTGTTTAT, the “relative binding free energy” value was determined as 0.1 kcal/mol.

As to AAGAACACGTGGGTAT, the “relative binding free energy” value was -0.09 kcal/mol.

On to CGTATCACGTGGGGGG, for which the “relative binding free energy” value is -0.02 kcal/mol.

For TTAAACACGTGAGTAT, the “relative binding free energy” value amounted to 0.27 kcal/mol.

In the case of GGTTGCACGTGGCGGT, the “relative binding free energy” value is -0.06 kcal/mol.

For the sequence TTACGCACGTGGCGTG, the “relative binding free energy” value was -0.2 kcal/mol.

Consider ATGGTCACGTGATAGT, for which the “relative binding free energy” value was found to be 0.14 kcal/mol.

With ATAGTCACGTGCAAGG, the “relative binding free energy” value was found to be 0.07 kcal/mol.

As for AGTGGCACGTGACGTG, the “relative binding free energy” value was 0.03 kcal/mol.

As for CGGGGCACGTGATGAT, the “relative binding free energy” value was found to be 0.02 kcal/mol.

On to AGTTCCACGTGTGGGA, for which the “relative binding free energy” value amounted to 0.03 kcal/mol.

With AGATTCACGTGGTTGA, the “relative binding free energy” value worked out at 0.25 kcal/mol.

GATAACACGTGGTTTG: the “relative binding free energy” value is 0.08 kcal/mol.

TTATGCACGTGTGTGG: the “relative binding free energy” value came out at 0.02 kcal/mol.

With GGATTCACGTGTATGT, the “relative binding free energy” value was determined as 0.37 kcal/mol.

GTTGTCACGTGGCTGC: the “relative binding free energy” value was 0.07 kcal/mol.

For the sequence GCGTGCACGTGGATAG, the “relative binding free energy” value is 0.2 kcal/mol.

In the case of GTGTACACGTGATGGT, the “relative binding free energy” value stood at 0.4 kcal/mol.

As for AGTGCCACGTGAAGTG, the “relative binding free energy” value was determined as 0.2 kcal/mol.

Turning to TTATTCACGTGCAGTA, the “relative binding free energy” value turned out to be 0.19 kcal/mol.

On to ATGAACACGTGTGTAT, for which the “relative binding free energy” value worked out at 0 kcal/mol.

Turning to TAGATCACGTGTTGCG, the “relative binding free energy” value amounted to 0.03 kcal/mol.

Turning to CTTTGCACGTGGTTCT, the “relative binding free energy” value was -0.12 kcal/mol.

Turning to TTGTACACGTGAATAG, the “relative binding free energy” value is 0.3 kcal/mol.

Take TGGGGCACGTGAAGCA: the “relative binding free energy” value came out at 0.07 kcal/mol.

As to GTGGGCACGTGTTTGA, the “relative binding free energy” value was -0.1 kcal/mol.

In the case of AGATTCACGTGAATGG, the “relative binding free energy” value is 0.42 kcal/mol.

Turning to TTATTCACGTGAGAGT, the “relative binding free energy” value was determined as 0.41 kcal/mol.

Consider TATAACACGTGTAATT, for which the “relative binding free energy” value was -0.02 kcal/mol.

Turning to ATTGACACGTGGATGT, the “relative binding free energy” value is -0.03 kcal/mol.

Consider ATTCACACGTGCGGGT, for which the “relative binding free energy” value worked out at 0.07 kcal/mol.

As to ATTTTCACGTGTGACT, the “relative binding free energy” value worked out at 0.32 kcal/mol.

ATGTTCACGTGCATGG: the “relative binding free energy” value turned out to be 0.12 kcal/mol.

For the sequence GGTGTCACGTGAGCTA, the “relative binding free energy” value was found to be 0.31 kcal/mol.

GGAGGCACGTGAATGA: the “relative binding free energy” value is 0.28 kcal/mol.

As to ATTGTCACGTGCGCAG, the “relative binding free energy” value worked out at 0.03 kcal/mol.

For the sequence GTTTCCACGTGTAAGT, the “relative binding free energy” value worked out at 0.23 kcal/mol.

With CGTGTCACGTGAGAGT, the “relative binding free energy” value came out at 0.14 kcal/mol.

On to TAAGGCACGTGTATTT, for which the “relative binding free energy” value is -0.09 kcal/mol.

On to GGTGGCACGTGTGGAG, for which the “relative binding free energy” value stood at 0.12 kcal/mol.

For AATCTCACGTGTGTAG, the “relative binding free energy” value came out at 0.35 kcal/mol.

In the case of GGAGTCACGTGCCGTG, the “relative binding free energy” value worked out at 0.11 kcal/mol.

As for GGGGACACGTGCGAGG, the “relative binding free energy” value is -0.14 kcal/mol.

In the case of GTAGACACGTGGCGTT, the “relative binding free energy” value is 0.07 kcal/mol.

Consider GAAGGCACGTGTGGGT, for which the “relative binding free energy” value was -0.02 kcal/mol.

Take AAAAGCACGTGGGGTG: the “relative binding free energy” value is -0.22 kcal/mol.

For TTCTACACGTGGCGTG, the “relative binding free energy” value stood at 0.07 kcal/mol.

Consider GGGCACACGTGCGAGG, for which the “relative binding free energy” value was 0.12 kcal/mol.

Regarding GTAGCCACGTGGATGG, the “relative binding free energy” value is -0.03 kcal/mol.

Turning to GTGCGCACGTGGCTGG, the “relative binding free energy” value is -0.19 kcal/mol.

Consider GGAGACACGTGTGGAT, for which the “relative binding free energy” value came out at 0.07 kcal/mol.

As to AGGTGCACGTGCGATT, the “relative binding free energy” value was -0.04 kcal/mol.

In the case of TGTAGCACGTGAACGT, the “relative binding free energy” value worked out at 0.22 kcal/mol.

For the sequence CTAAACACGTGGGGGG, the “relative binding free energy” value is -0.13 kcal/mol.

Take TGTCGCACGTGGCATG: the “relative binding free energy” value is -0.21 kcal/mol.

TGTGCCACGTGCGGCG: the “relative binding free energy” value is -0.06 kcal/mol.

With TTTTACACGTGATGTT, the “relative binding free energy” value was determined as 0.17 kcal/mol.

As for TAGGGCACGTGGCTTA, the “relative binding free energy” value was -0.12 kcal/mol.

For the sequence ATGGTCACGTGTGGGC, the “relative binding free energy” value was 0.19 kcal/mol.

As for TGGTGCACGTGGATGA, the “relative binding free energy” value amounted to 0.02 kcal/mol.

On to TTCTACACGTGAAGTT, for which the “relative binding free energy” value amounted to 0.24 kcal/mol.

As for AATGTCACGTGGGCAT, the “relative binding free energy” value is -0.12 kcal/mol.

In the case of GGTGTCACGTGTACAG, the “relative binding free energy” value came to 0.19 kcal/mol.

On to ATGTACACGTGGATGC, for which the “relative binding free energy” value is 0 kcal/mol.

In the case of CTTATCACGTGTAGTG, the “relative binding free energy” value is 0.18 kcal/mol.

With AGGAGCACGTGGCGGT, the “relative binding free energy” value is -0.18 kcal/mol.

With CGTAGCACGTGAAGGT, the “relative binding free energy” value turned out to be 0.1 kcal/mol.

With TATCTCACGTGTTGTA, the “relative binding free energy” value was 0.26 kcal/mol.

For the sequence ATGAACACGTGGGCGG, the “relative binding free energy” value is -0.27 kcal/mol.

Regarding GTTCTCACGTGTGTAG, the “relative binding free energy” value came out at 0.27 kcal/mol.

As for TGTATCACGTGAGTTC, the “relative binding free energy” value turned out to be 0.43 kcal/mol.

On to CGAGTCACGTGAGGCG, for which the “relative binding free energy” value was 0.28 kcal/mol.

Turning to TTAATCACGTGTAGCG, the “relative binding free energy” value was determined as 0.19 kcal/mol.

Turning to TCTGACACGTGAGATT, the “relative binding free energy” value turned out to be 0.41 kcal/mol.

Take TGTGACACGTGGGGTC: the “relative binding free energy” value was -0.03 kcal/mol.

As to CGTGACACGTGTTGTT, the “relative binding free energy” value was 0.01 kcal/mol.

Turning to GGGGTCACGTGCGGCT, the “relative binding free energy” value amounted to 0.11 kcal/mol.

In the case of CTTGCCACGTGGTATT, the “relative binding free energy” value is -0.06 kcal/mol.

With TGGGACACGTGGCGGG, the “relative binding free energy” value was 0.02 kcal/mol.

For the sequence TGAGGCACGTGATGTA, the “relative binding free energy” value was -0.13 kcal/mol.

As to TCTCGCACGTGTGGGG, the “relative binding free energy” value was 0.01 kcal/mol.
